Experimental data from PMC4336329 (PLoS ONE, 2015).
In all, about 310,000 compounds went through this assay and about 14,000 (4.5%) showed an effect of 50% or more. The effect is printed as a negative number. The list shows a part of the results.

target: human ether-à-go-go-related gene (hERG) potassium channel (human, UniProt Q12809); assay: primary screen, population patch clamp on CHO cells stably expressing hERG
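Note: peak tail current of the secondary pulse compared with the same well before compound.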

Chain of human ether-à-go-go-related gene (hERG) potassium channel (Q12809 whole entry, looked up): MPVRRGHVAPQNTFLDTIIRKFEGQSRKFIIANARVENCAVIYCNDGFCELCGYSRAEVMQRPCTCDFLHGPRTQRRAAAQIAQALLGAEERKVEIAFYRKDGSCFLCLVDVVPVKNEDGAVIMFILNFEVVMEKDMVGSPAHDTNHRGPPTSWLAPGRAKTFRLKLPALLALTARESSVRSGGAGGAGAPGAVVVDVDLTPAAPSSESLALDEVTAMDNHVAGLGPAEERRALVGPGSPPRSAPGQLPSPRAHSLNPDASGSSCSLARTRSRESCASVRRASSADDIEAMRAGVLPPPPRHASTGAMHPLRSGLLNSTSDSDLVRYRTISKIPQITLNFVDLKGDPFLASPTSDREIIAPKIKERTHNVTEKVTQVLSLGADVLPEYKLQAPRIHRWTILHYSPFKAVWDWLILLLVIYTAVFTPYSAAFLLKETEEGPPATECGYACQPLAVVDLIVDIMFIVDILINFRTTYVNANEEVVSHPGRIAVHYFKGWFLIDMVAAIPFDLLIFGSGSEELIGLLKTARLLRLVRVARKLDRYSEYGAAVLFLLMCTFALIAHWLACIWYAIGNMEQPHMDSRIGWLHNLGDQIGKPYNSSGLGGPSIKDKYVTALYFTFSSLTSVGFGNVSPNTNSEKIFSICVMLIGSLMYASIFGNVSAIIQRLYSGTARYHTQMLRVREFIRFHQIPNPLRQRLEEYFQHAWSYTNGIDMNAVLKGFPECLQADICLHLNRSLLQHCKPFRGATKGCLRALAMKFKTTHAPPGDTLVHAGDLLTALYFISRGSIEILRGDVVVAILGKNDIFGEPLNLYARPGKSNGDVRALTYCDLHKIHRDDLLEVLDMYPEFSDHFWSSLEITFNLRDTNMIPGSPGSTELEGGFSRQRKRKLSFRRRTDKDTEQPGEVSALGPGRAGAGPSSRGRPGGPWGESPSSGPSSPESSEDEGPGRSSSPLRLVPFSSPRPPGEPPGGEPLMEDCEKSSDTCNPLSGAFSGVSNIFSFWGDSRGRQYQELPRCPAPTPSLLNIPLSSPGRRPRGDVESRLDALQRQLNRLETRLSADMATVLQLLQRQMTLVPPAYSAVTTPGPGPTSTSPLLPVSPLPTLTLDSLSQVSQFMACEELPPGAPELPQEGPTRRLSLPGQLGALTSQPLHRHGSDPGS

Row | SMILES | hERG current change (%, negative = inhibition) at 10uM [%]
1 | COc1ccccc1C1C2=C(COC2=O)Nc2cc3c(cc21)OCO3 (stereo not drawn) | 1.55
2 | OC(c1ccccc1)c1ccncc1 (stereo not drawn) | 6.25
3 | COc1cc(C2CC(=O)N3CN(Cc4ccccc4)CSC3=C2C#N)ccc1OCc1ccccc1 (stereo not drawn) | 12.7
4 | CCCCC(=O)OCc1nc2ccccc2s1 | 10.1
5 | CCC(=O)NCC(c1cccs1)S(=O)(=O)c1ccc(C)cc1 (stereo not drawn) | 15.3
6 | COc1ccccc1OCCC(=O)OCC(=O)c1c(N)n(C)c(=O)n(C)c1=O | -10.3
7 | CCOC(=O)Cc1csc(NC(=O)c2sc3nc4c(C)cc(C)cc4cc3c2N)n1 | -0.163
8 | COc1ccc(/C=N/Nc2nc3ccccc3c(=O)[nH]2)cc1 | -18.1
9 | COC(=O)c1c(NC(=O)CN2CCCc3ccccc32)sc(C)c1C | 10.5
10 | Cc1ccc(C(=O)OCC(=O)NCc2ccco2)cc1 | -8.9
11 | COc1ccc(C(C(=O)NC2CCCCC2)N(C(=O)c2snc(C(N)=O)c2N)c2ccccc2OC)cc1 (stereo not drawn) | 11.4
12 | COc1ccc(/C=C/C(=O)Oc2ccc(C)cc2)cc1 | -14.4
13 | Cc1ccccc1NC(=O)c1ccno1 | 10.4
14 | COCCNC(=O)c1cc(-c2ccc(OC)c(OC)c2)on1 | -1.95
15 | COc1ccccc1NC(c1cccnc1)c1ccc2cccnc2c1O (stereo not drawn) | 5.53
16 | CCC(=O)NC(=S)Nc1ccc(NC(=O)COc2ccc(Cl)cc2Cl)cc1 | 10.7
17 | CCCc1nnc(SCC(=O)Nc2cccc(C(F)(F)F)c2)o1 | -0.0577
18 | CCCC(CCC)C(=O)Oc1cc(C)[nH]c(=O)c1[N+](=O)[O-] | 20.2
19 | O=C(CSc1nccc2ccccc12)N1CCN(Cc2ccc3c(c2)OCO3)CC1 | -40.5

Row | SMILES | hERG current change (%, negative = inhibition) at 10uM [%]
20 | O=C(CSc1nnc(NC(=O)C2CC2)s1)NCc1cccs1 | 11
21 | CC(NC(=O)Cn1cnc([N+](=O)[O-])n1)c1ccccc1 (stereo not drawn) | 12.2
22 | CN(C)S(=O)(=O)c1ccc(N2CCCC2)c(C(=O)Nc2nc3c(ccc4ccccc43)s2)c1 | 14.9
23 | COc1ccc(-n2cc(-c3ccccc3)c3c(NN4CCOCC4)ncnc32)cc1 | -40.6
24 | Cn1c(=O)c2[nH]c(-c3ccccc3O)nc2n(C)c1=O | 23
25 | Cc1ccc(S(=O)(=O)NCc2ccco2)cc1C | -11.9
26 | NNC(=O)c1nc[nH]c1C(=O)Nc1ccccc1[N+](=O)[O-] | 29.2
27 | C#CCOCCOCCOCCNc1nc(N2CCN(C(=O)CCCCCCCCCCNC(=O)[C@H](CCCCN)n3cc(C)nn3)CC2)nc(N2CCN(C(=O)CCCCCCCCCCNC(=O)[C@H](CCCCN)n3cc(CCCC(=O)O)nn3)CC2)n1 | 9.15
28 | O=C(c1ccccc1NS(=O)(=O)c1ccc(F)cc1)N1CCCCC1 | -4.35
29 | C=CCN1C(=O)C(=O)N(CC(=O)c2ccc3c(c2)CCCC3)C1=O | -3.16
30 | Cc1ccc2oc(C(=O)N(CCO)Cc3ccccc3)c(C)c2c1 | 0.289
31 | Cc1ccccc1-c1nc(CN2CCC(C(=O)NCCCN3CCCC3)CC2)c(C)o1 | 14.4
32 | COC(=O)c1cccc(NC(=S)NC(C)C)c1 | 15.3
33 | N[C@@]12CCc3nonc3[C@]1(O)CC(c1ccccc1)=[N+]2[O-] | -0.645
34 | COc1cc(C2NC(=S)NC(c3ccccc3)=C2C(C)=O)cc(Br)c1OCC(N)=O (stereo not drawn) | 11.5
35 | O=C(N1CCOCC1)C12CCC3CC(CC(C3)C1)C2 | -4.11
36 | O=S(=O)(NC1CCCCC1Oc1ccccc1)c1ccccc1 (stereo not drawn) | -3.79
37 | Cc1ccc(C)c(NC(=O)CCc2nnc3ccc(N4CCCC4)nn23)c1 | -12.1
38 | CCOc1ccc(NC(=S)Nc2ccc(C)c([N+](=O)[O-])c2)cc1.Cl | 17.7

Row | SMILES | hERG current change (%, negative = inhibition) at 10uM [%]
39 | Nc1nc(-c2ccccn2)nc(N)c1Cc1ccccc1F | -13.4
40 | CC(C)(C)NC(=O)C1Cc2ccccc2CN1 (stereo not drawn) | 18.9
41 | Cc1cc(Cl)ccc1OCC(=O)NCCCCc1ccccc1 | 12.2
42 | CCC(C)(C)NC(=O)CN(Cc1ccc2c(c1)OCO2)C(=O)CCC(=O)Nc1nccs1 | -13.5
43 | CC(=O)N/C(=C/c1ccc2c(c1)OCO2)C(=O)NC(Cc1ccccc1)C(=O)O (stereo not drawn) | 2.76
44 | CN1CCN(c2ccc(NC(=O)N3CCc4ccccc43)cc2)CC1 | -18.3
45 | Cc1ccc(-c2cc(NC(=O)c3ccccc3)on2)cc1 | 18.2
46 | Cc1ccc(C(CNS(=O)(=O)c2ccc(C)cc2)N2CCN(C)CC2)cc1 (stereo not drawn) | -62.8
47 | CCOc1ncccc1C(=O)NNC(=O)c1ccccc1-n1cccc1 | 17
48 | COCCSc1ccccc1C(=O)N1CCN(Cc2ccccc2)CC1 | -1.04
49 | COC(=O)CC1=NC(=O)CS1 | 0.623
50 | O=C(CSc1ncccn1)Nc1cc(Cl)ccc1[N+](=O)[O-] | 25.1
51 | O=C(CSc1nnc(C2CC2)n1Cc1ccccc1)N1CCN(S(=O)(=O)c2ccccc2)CC1 | -19.9
52 | O=C(COC(=O)c1ccccc1-n1cnnn1)c1ccc(F)c(F)c1 | -3.28
53 | COCC(C)NC(=O)Cn1c(SCc2ccccc2)nc2ccccc21 (stereo not drawn) | 2.51
54 | c1ccc2sc(C3CCCNC3)nc2c1 (stereo not drawn) | -2.43
55 | COC(=O)c1ccncc1C(=O)Nc1ccc(F)cc1 | 25.4
56 | Cc1nnc(SCC(=O)N2CCOCC2)s1 | -0.727
57 | C=CCNC(=O)c1onc(CS(=O)(=O)c2cc(C)cc(C)c2)c1C(=O)NCC=C | -8.18
